Experimental data: the BET-seq Pho4 binding data (Le et al. 2018)
The other results are listed elsewhere or left out. Values were computed here from the reads of four pooled replicates and scatter widely.

Biological target: T1, Pho4 (S. cerevisiae) (UniProt P07270)
T1 sequence: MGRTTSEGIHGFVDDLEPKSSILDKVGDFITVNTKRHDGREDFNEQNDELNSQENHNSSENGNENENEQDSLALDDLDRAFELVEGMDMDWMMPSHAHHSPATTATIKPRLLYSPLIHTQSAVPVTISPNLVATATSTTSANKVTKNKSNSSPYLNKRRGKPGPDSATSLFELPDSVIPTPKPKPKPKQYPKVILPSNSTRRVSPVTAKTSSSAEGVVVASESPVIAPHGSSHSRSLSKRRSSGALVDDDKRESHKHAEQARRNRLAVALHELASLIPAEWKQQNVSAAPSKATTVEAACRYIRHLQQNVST
Experiment: relative binding free energy (BET-seq); higher = weaker binding
Conditions: reference: library average

| Sequence | relative binding free energy [kcal/mol] |
| --- | --- |
| AGTCTCACGTGAATTG | 0.33 |
| ACTGTCACGTGGGTTA | -0.18 |
| TGGAGCACGTGTGACG | -0.03 |
| TTTCACACGTGTGAGT | 0.17 |
| TAGGGCACGTGACTTT | -0.06 |
| ATTTTCACGTGGGGTC | 0.18 |
| GTTGACACGTGTTGAA | 0.15 |
| GAATGCACGTGTGAAG | 0.33 |
| CTTGGCACGTGTATTG | -0.16 |
| GGTTTCACGTGCTGTC | 0.32 |
| GTGGACACGTGGTAGC | 0.01 |
| CTAGGCACGTGTGGGC | -0.04 |
| CATGGCACGTGGGGCG | -0.19 |
| GGGCTCACGTGGGAAT | 0.34 |
| AGCGTCACGTGAGGTT | 0.11 |
| TAACGCACGTGGTCTT | 0.11 |
| GATTGCACGTGTTCAT | 0.08 |
| GGCGTCACGTGGGGCA | 0.06 |
| TTGTTCACGTGCTGTA | 0.17 |
| GTTGACACGTGTTGGA | 0.13 |
| TTGAGCACGTGAGAAG | 0.06 |
| GGTTGCACGTGAGTCG | 0.33 |
| AGTGGCACGTGAGGCC | 0.01 |
| TATGTCACGTGATCAT | 0.11 |
| TGCGGCACGTGGGCAT | -0.22 |

| Sequence | relative binding free energy [kcal/mol] |
| --- | --- |
| AGATGCACGTGCTGGG | -0.14 |
| GTTCACACGTGTTTCG | 0.24 |
| TGGGGCACGTGTAAGT | -0.03 |
| TATGGCACGTGGATCG | -0.11 |
| TTATCCACGTGAGGGG | 0.19 |
| GGGGCCACGTGGCGTG | -0.13 |
| ATTATCACGTGAGAAT | 0.28 |
| ATCGGCACGTGGGAGA | -0.13 |
| ATGAGCACGTGGTATG | -0.15 |
| TTACTCACGTGCGTGT | 0.13 |
| AGGAGCACGTGCGAGG | -0.22 |
| TGTTACACGTGCATAG | 0.13 |
| AGGTCCACGTGATTTA | 0.22 |
| AGTAACACGTGGGGGA | -0.12 |
| CTGGACACGTGTGGGA | 0.13 |
| GGTGTCACGTGGACTG | 0.04 |
| GTTGGCACGTGGCCTA | -0.12 |
| GGCTACACGTGGGATG | 0.15 |
| GGTCTCACGTGGGGAG | 0.1 |
| GTGAACACGTGGACGG | 0.06 |
| AGCTTCACGTGTATTA | 0.18 |
| GTTGACACGTGAAGTG | 0.17 |
| TAACACACGTGTGGTG | 0.05 |
| TGTGGCACGTGGTGCC | -0.19 |
| GTAAGCACGTGTCTTA | 0.04 |

| Sequence | relative binding free energy [kcal/mol] |
| --- | --- |
| GCAGTCACGTGTGGAG | 0.13 |
| ATCGACACGTGATTGT | 0.29 |
| TTGAACACGTGTTTCA | 0.1 |
| AGGCGCACGTGTGGGT | -0.14 |
| TCTAGCACGTGGAAGG | 0.08 |
| TTGTTCACGTGGTAAG | 0.26 |
| TATATCACGTGTTGTC | 0.12 |
| AAGGCCACGTGATTGT | -0.08 |
| TAGATCACGTGATGGT | 0.32 |
| TGCATCACGTGTTGTG | -0.04 |
| AGTGGCACGTGTACGC | 0.04 |
| TTGTTCACGTGTGATC | 0.37 |
| TTTAACACGTGCGTGC | 0.01 |
| ATCTACACGTGGGTTT | 0.03 |
| AGTGACACGTGAATCG | 0.35 |
| CGGGCCACGTGGTTTG | -0.22 |
| TTTTGCACGTGGTCTG | -0.01 |
| TTGTGCACGTGGGTGT | -0.12 |
| CATGGCACGTGCGTGT | -0.28 |
| GTACGCACGTGTTGGT | -0.05 |
| CGAGGCACGTGGTGTA | -0.16 |
| GGAATCACGTGGCTGG | 0.22 |
| TGAGACACGTGTGTGA | -0.06 |
| TGGGTCACGTGATGAG | 0.25 |
| TGATGCACGTGATTGG | 0.09 |

| Sequence | relative binding free energy [kcal/mol] |
| --- | --- |
| CTTAGCACGTGTTTTG | -0.14 |
| GGCTACACGTGGTTGT | 0.2 |
| ATGGTCACGTGGTTGA | 0.11 |
| TGAGGCACGTGGTCCG | -0.22 |
| GGTTGCACGTGATTAA | 0.01 |
| AGTGTCACGTGGACGG | 0.16 |
| TTCAGCACGTGGTGTT | -0.13 |
| TTCAGCACGTGGTGGG | -0.14 |
| ATGATCACGTGTTAGG | 0.1 |
| TTAGTCACGTGGCATT | 0.05 |
| ATTCGCACGTGCGGGG | -0.11 |
| TATAGCACGTGTAAGT | -0.03 |
| GTATCCACGTGTTAGG | 0.17 |
| GTGTTCACGTGTAGTT | 0.22 |
| AGTCGCACGTGGGAGG | -0.19 |
| AAGGACACGTGGATAG | 0.08 |
| TCGGACACGTGAGGGC | 0.3 |
| ATGGACACGTGGTGAC | 0.04 |
| CGTAGCACGTGTGTAG | -0.06 |
| TTGTTCACGTGCTTGT | 0.18 |
| TTGGTCACGTGCGGAT | 0.15 |
| GTACTCACGTGGTTAG | 0.34 |
| GTAGCCACGTGAGGTA | 0.26 |
| TAATTCACGTGCTGGA | 0.28 |
| TTGATCACGTGTTCGA | 0.12 |

| Sequence | relative binding free energy [kcal/mol] |
| --- | --- |
| TGAGGCACGTGAAGAA | 0.19 |
| AGCGGCACGTGGTAAG | -0.09 |
| AGACCCACGTGGGGTG | -0.21 |
| GAATGCACGTGAGTTA | 0.28 |
| TTGGTCACGTGTGAGT | 0.23 |
| ATGTTCACGTGTGAGG | 0.31 |
| TTTAACACGTGAGGGC | 0.19 |
| TTAAACACGTGCTTGG | -0.05 |
| CCGGGCACGTGTAGGG | -0.14 |
| GGTTGCACGTGGAGGC | 0.09 |
| TACGACACGTGGTGTG | -0.1 |
| GGGCGCACGTGATGAA | 0.22 |
| GTGCACACGTGGTTGC | 0.06 |
| AGGGTCACGTGTCGAG | 0.14 |
| TTTTACACGTGCGTAA | 0.07 |
| ATGTACACGTGAGTTC | 0.29 |
| CGATGCACGTGTAGCG | 0.07 |
| GTGGACACGTGTTTGG | -0.03 |
| CTGGACACGTGTGATG | 0.12 |
| GGGGTCACGTGACGGG | 0.25 |
| AGGGTCACGTGTGATA | 0.22 |
| GTTCTCACGTGCGTTG | 0.2 |
| ATTCACACGTGGTTAT | 0.06 |
| GTATGCACGTGAGCGG | 0.16 |
| AATTGCACGTGTGGTA | 0.05 |

| Sequence | relative binding free energy [kcal/mol] |
| --- | --- |
| ATTTTCACGTGATGCA | 0.25 |
| TAGGGCACGTGTCGTT | -0.12 |
| GTCGGCACGTGATAGG | -0.04 |
| AGGTTCACGTGTAAAT | 0.38 |
| TCTTGCACGTGGTACT | -0.03 |
| TGAGTCACGTGGTAAC | 0.21 |
| TCAGGCACGTGGGAAT | 0 |
| AGTGGCACGTGTAGGG | -0.07 |
| GGGGACACGTGGGAAC | 0.06 |
| AGTAGCACGTGTCGGT | -0.02 |
| CAATGCACGTGGGGTC | -0.12 |
| TTCGGCACGTGGGTTG | -0.16 |
| AGGGGCACGTGTGATG | 0.01 |
| TTTAGCACGTGAGATA | 0.27 |
| GTTCACACGTGGGGCT | 0.04 |
| ATAGGCACGTGGTTAG | -0.25 |
| ATATCCACGTGGGGAG | -0.03 |
| TGAAACACGTGCGGGG | -0.05 |
| GGTTTCACGTGCGCGA | 0.33 |
| GGTTGCACGTGACGCG | 0.07 |
| GTTAACACGTGGAGGT | 0.11 |
